Here are results for 15 compounds from article PMC8847420, “Non-covalent SARS-CoV-2 M^pro inhibitors developed from in silico screen hits” (Scientific Reports, 2022).

Structures are written as SMILES.

Test [1] addresses T1, SARS-CoV-2 M^pro (Severe acute respiratory syndrome coronavirus 2, UniProt P0DTD1). Particulars: 1 μM M^pro, 20 μM compound; for melting temperature of M^pro: DMSO control 56.32-56.58 °C.
Test [2] concerns the target T1, SARS-CoV-2 M^pro. Put plainly: biochemical. To be noted: for inhibitory activity in the protease assay in the presence of cell lysate: 1 μg cell lysate, 40 μM compound; for inhibitory activity against M^pro in the presence of cell lysate: dose-response, 0.1 μg protein lysate; for IC50: in vitro FRET protease assay, 100 nM M^pro, 500 nM substrate, 22 °C; for inhibition at 40 µM: final compound concentration 40 μM, read-out: inhibition of the protease activity of M^pro (pre-defined threshold level).

Regarding `CS(=O)(=O)c1ncc(Cl)c(C(=O)C(C#N)c2nc3ccc(Cl)cc3c(=O)[nH]2)n1` (centres unmarked) [Z56785964], the “melting temperature of M^pro” value on SARS-CoV-2 M^pro [1] was 48.63-55.98 °C.

As for `N#CC(C(=O)c1nc(N2CCC(Cc3ccccc3)CC2)ncc1Cl)c1nc2ccc(Cl)cc2c(=O)[nH]1` (centres unmarked) [Z56786187], the “melting temperature of M^pro” value at SARS-CoV-2 M^pro [1] stood at 52 °C. Also, at SARS-CoV-2 M^pro [2], the “inhibitory activity in the protease assay in the presence of cell lysate” value is listed as “lost activity”.

`O=C1CC(C(=O)Nc2ccc(Br)cc2)c2ccccc2N1` (centres unmarked) [Z222977344]: at SARS-CoV-2 M^pro [1], the “melting temperature of M^pro” value was found to be 57.24 °C. At SARS-CoV-2 M^pro [2], the “inhibitory activity against M^pro in the presence of cell lysate” value (“inhibitory activity against M^pro” below) is on record as “retained” and the IC50 came out at 2 µM.

Turning to `O=C1CC(C(=O)Nc2ccc(Cl)cc2)c2ccccc2N1` (centres unmarked) [Z222978028], the “melting temperature of M^pro” value at SARS-CoV-2 M^pro [1] worked out at 57.02 °C. Besides, at SARS-CoV-2 M^pro [2], the “inhibitory activity against M^pro” value is given as “retained” and the IC50 was 5.8 µM.

In the case of `CSc1ccc(NC(=O)C2CC(=O)Nc3cc(F)ccc32)cc1` (centres unmarked) [Z225602086], the “melting temperature of M^pro” value at SARS-CoV-2 M^pro [1] came out at 57.02 °C. In addition, half-maximal inhibition on SARS-CoV-2 M^pro [2] (IC50) required 7.4 µM.

As for `CSc1ccc(NC(=O)C2CC(=O)Nc3ccccc32)cc1` (centres unmarked) [Z228166018], the “melting temperature of M^pro” value on SARS-CoV-2 M^pro [1] was 57.43 °C. Further, at SARS-CoV-2 M^pro [2], the “inhibitory activity against M^pro” value was “retained” and inhibition was half-maximal at 1.6 µM (IC50).

On to `O=C1CC(C(=O)Nc2ccc(I)cc2)c2ccc(F)cc2N1` (centres unmarked) [Z228770960], for which the “increase of the melting temperature of M^pro” value on SARS-CoV-2 M^pro [1] (versus DMSO) was 1.2 °C. For the same compound, the “melting temperature of M^pro” value on SARS-CoV-2 M^pro [1] came to 57.56 °C. In addition, the IC50 on SARS-CoV-2 M^pro [2] turned out to be 4 µM.

Take `N#CC(C(=O)c1nc(-c2ccccc2)n(-c2ccccc2)n1)c1nc2sc3c(c2c(=O)[nH]1)CCCC3` (centres unmarked) [Z637352244]: at SARS-CoV-2 M^pro [1], the “melting temperature of M^pro” value amounted to 53.85 °C. Moreover, at SARS-CoV-2 M^pro [2], the “inhibitory activity in the protease assay in the presence of cell lysate” value is “lost activity”, the inhibition at 40 µM was more than 25% and the IC50 is 22 µM.

On to `Cc1oc(-c2ccccc2)nc1C(=O)C(C#N)c1nc2sc3c(c2c(=O)[nH]1)CCCC3` (centres unmarked) [Z637352638], for which the “melting temperature of M^pro” value on SARS-CoV-2 M^pro [1] was 45.5-56.55 °C. At SARS-CoV-2 M^pro [2], the half-inhibitory concentration (IC50) amounted to 7.5 µM.

Take `CC(=O)c1ccc(-c2ccc(C(=O)C(C#N)c3nc4sc5c(c4c(=O)[nH]3)CCCC5)o2)cc1` (centres unmarked) [Z637352642]: the “melting temperature of M^pro” value on SARS-CoV-2 M^pro [1] came to 54.65 °C. In addition, at SARS-CoV-2 M^pro [2], the inhibition at 40 µM is more than 25% and the IC50 was 223 µM.

In the case of `N#CC(C(=O)C1=Cc2cc(Cl)ccc2OC1)c1nc2cc(Cl)ccc2c(=O)[nH]1` (centres unmarked) [Z637450230], at SARS-CoV-2 M^pro [1], the “effect on the melting temperature of M^pro” value is given as “did not affect the melting temperature” and the “melting temperature of M^pro” value is 56.55 °C. In addition, the “inhibitory activity in the protease assay in the presence of cell lysate” value at SARS-CoV-2 M^pro [2] is listed as “lost activity”.

Regarding `c1cnc(N2CCCC(Nc3nc(NC4CCCN(c5ncccn5)C4)c4ccccc4n3)C2)nc1` (centres unmarked) [Z1037455358], at SARS-CoV-2 M^pro [1], the “effect on the melting temperature of M^pro” value is given as “decreased the melting temperature” and the “melting temperature of M^pro” value came to 55.9 °C. For the same compound, on SARS-CoV-2 M^pro [2], the “inhibitory activity in the protease assay in the presence of cell lysate” value is reported as “lost activity”, the inhibition at 40 µM was more than 25% and the half-inhibitory concentration (IC50) amounted to 26 µM.

As for `Cc1cc(C)c2nc(C(C#N)C(=O)c3nc(S(C)(=O)=O)ncc3Cl)[nH]c(=O)c2c1` (centres unmarked) [Z2239054061], the “melting temperature of M^pro” value at SARS-CoV-2 M^pro [1] was 48.8-55.5 °C. Moreover, the IC50 on SARS-CoV-2 M^pro [2] turned out to be 6.7 µM.

For `Cn1cc(-c2cc(F)ccc2NC(=O)C2CC(=O)Nc3cc(F)ccc32)cn1` (centres unmarked) [ZINC000373659060], the “melting temperature of M^pro” value at SARS-CoV-2 M^pro [1] is 56.36 °C. Also, on SARS-CoV-2 M^pro [2], the “inhibitory activity in the protease assay in the presence of cell lysate” value was “maintained inhibitory activity”, the inhibition at 40 µM is more than 25% and half-maximal inhibition (IC50) required 58 µM.

Take `Cc1cc(NC(=O)C2CC(=O)Nc3cc(F)ccc32)n(-c2cccc(Cl)c2)n1` (centres unmarked) [ZINC000636416501]: at SARS-CoV-2 M^pro [1], the “melting temperature of M^pro” value was determined as 56.36 °C. At SARS-CoV-2 M^pro [2], the “inhibitory activity in the protease assay in the presence of cell lysate” value is “maintained inhibitory activity”, the inhibition at 40 µM is more than 25% and the IC50 amounted to 93 µM.

Usually IC50 stands for the concentration that gives 50% inhibition. Higher therefore signals weaker potency in that assay. As usually defined, the inhibition is the percentage by which the read-out fell short of the control.
